# Test results taken from the supplement of paper PMC11417369.
# ± gives the standard deviation of the averaged measurements. This is one part of the list.
# Tested on: PfAP2-I AP2 domain 3 (GST-tagged)
# Experiment: gcPBM binding intensity (ln(normalized median fluorescence intensity)); higher = stronger DNA binding
# Summary of the method: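 DNA-binding domains from P. falciparum, fused to GST and produced in E. coli, were put on an Agilent 4 × 180k double-stranded probe array for 1 h in 1× PBS holding 1% milk, 0.2 mg/ml BSA, 0.5% salmon testes DNA and 0.03% Triton X-100. Probes were primer-extended, 36 bp long and drawn from intergenic genomic regions, with negative controls included. After Alexa488 anti-GST antibody detection and a 488 nm scan, binding intensity was set as the highest Masliner-normalised natural-log median intensity across replicate spots of either probe orientation.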
row,Sequence,gcPBM binding intensity (ln)
1,ATATTTATATACAAATGTACGCATATAATATATATA [XGTACX_site1232],8.3 ± 0.43
2,AAAAAAATATTATAATATATATATATATATATATAT [GTGCAC_negctrl_site399],9.33 ± 0.79
3,AGAGATTATAAAATATGTACTAAATATTAAATCTTA [XGTACX_site7050],7.38 ± 0.42
4,ATATATATACATACATACCTATGTATATGTGTAATT [GTGCAC_negctrl_site50],8.28 ± 0.45
5,ATGGTAGTGATTAAAAGTACACGTAATTGTAAAAAT [XGTACX_site387],8.25 ± 0.57
6,TAAACAACTTATAAATGTACACATATTTTAATTACC [XGTACX_site5409],7.95 ± 0.38
7,TAAAAAAAAAAAAATACACACACACCGATATATATA [CACACA_site8498],8.17 ± 0.76
8,AATAAAAACTAAACATGTACGCACATATATATATAT [XGTACX_site8096],9.44 ± 0.16
9,TAAGTGCATGAGATATGTACATATATAAAATATATA [XGTACX_site3294],8.735 ± 0.007
10,TCATAGTCTTAATGACTACACACCTAACTATGCATG [CACACA_site1839],7.5 ± 0.54
11,TTTGTTTTTTCTTTTTGTACATATACAAGATACGTA [XGTACX_site2309],7.88 ± 0.49
12,GTATATATTCATATGGAAAATAAAGGAGAAAACAAG [TGCATGCA_negctrl_site220],8.32 ± 0.49
13,ATGTATGTATAATATACACACTCACAAGCATTCAAA [CACACA_site4306],7.67 ± 0.49
14,ACCCAACATATGTGTACACAGAAAATAAATATAATA [CACACA_site5901],8.61 ± 0.057
15,TTTTGTAATTCTCTTCATATAATTTATATATATATA [CACACA_negctrl_site1825],9.14 ± 0.23
16,GTGTTTTTTTTAGATTGTACATATATATATATATAT [XGTACX_site4562],9.63 ± 0.23
17,TTCCATATAATTACATGTACACATTTTGAATAATAT [XGTACX_site3692],8.23 ± 0.3
18,ACAGATATACATAAAAAAAAAATAATTTTACATATA [CACACA_negctrl_site929],7.25 ± 0.49
19,AGCACAGACGGACACACACACATATATATATATATA [CACACA_site4341],9.41 ± 0.33
20,ATATATATGTATGTATGTACATATTTGAATTTATTT [XGTACX_site8470],7.76 ± 0.41
21,ATTTGTTACACTAAATGTACATACATACATATATAT [XGTACX_site6175],8.05 ± 0.44
22,TTATAAATTATAGGTACACACAAAAAAAAAAAGAAA [CACACA_site1327],7.99 ± 0.5
23,ATAAACATATCAATATGTACATATTTTTGTTTGTAT [XGTACX_site7018],7.69 ± 0.31

row,Sequence,gcPBM binding intensity (ln)
1,TTATAATAGTTAAATGTACACACTAACTACATGGAA [CACACA_site9070],7.95 ± 0.35
2,AAACCACAAAATTTTTTATATATGACCAATACATAG [CACACA_negctrl_site277],7.81 ± 0.54
3,ATTTATCAATAAAATGCACACACTGTAATATTATTA [CACACA_site3976],8.94 ± 0.014
4,TAATATAATATATATACACACAAGAAATACAAAACG [CACACA_site1378],8.25 ± 0.38
5,ACATAAATTTAATACACACACAAAGAAAAAAAAAAA [CACACA_site4088],8.31 ± 0.62
6,ATATTATTATAATATACATATATATATATAATATAT [CACACA_negctrl_site480],7.63 ± 0.15
7,TATATATATAATTAAAGTACATATAACCACAAAAAT [XGTACX_site7289],8.31 ± 0.4
8,GGTCTTTTCAACACACGTACATAAAAATATTATACA [XGTACX_site5360],8.6 ± 0.35
9,TAAACATATAGAGGGGTGCAAAGAATTGTAAAATTT,10.7 ± 0.18
10,TATATATTGATATGCACACCTATGTATTGATGTATA [CACACA_site1073],8.99
11,AATAATAATAAATATACACACATCATACAATTAACA [CACACA_site3679],7.74 ± 0.45
12,TATTTTTTTCTTACTACACACATATAGATGCTTTCC [CACACA_site7825],7.97 ± 0.67
13,TTATAAAAATAATATCGTACAAATGACATAGATGAA [XGTACX_site2570],7.66 ± 0.61
14,AGATATTTTATAATTACACACATGAGGTTATTTGAA [CACACA_site1999],7.66 ± 0.41
15,CATATACATAAACACACACACACATAAATAAATATA [CACACA_site4864],7.92 ± 0.23
16,ACATAAAATTGTTAAAAAATTGTATAAATAATACAT [XGTACX_negctrl_site557],7.49 ± 0.53
17,GAAAAGCAGATAAATGTGCACATATATGTTTGTATA,9.71 ± 0.43
18,TATAGGTATATATAAGTGCAATATATATGTATATAC [GTGCAC_site9427],10.9 ± 0.41
19,TATTATTTTTTAAATTGTACAATAAATTATAAAAGG [XGTACX_site1162],7.89 ± 0.27
20,CAGCTCTTAAAAATTACACACATATACTCATATATA [CACACA_site5757],7.63 ± 0.38
21,TTTTTTTCTTTATTAGCACACATAATATTATATATG [CACACA_site8841],8.81 ± 0.45
22,TATATCATTATATAAACACACAATATGTTTTTTATA [CACACA_site3781],7.42 ± 0.54
23,ACCTAAAAGGTATAATATATAAATAAAAAAAAAAAT [CACACA_negctrl_site134],7.58 ± 0.66

row,Sequence,gcPBM binding intensity (ln)
1,TATTAATCTAATTCATAAAAAATGATCTATTTTGTT [CACACA_negctrl_site1035],7.24 ± 0.62
2,AAAATGAACAGACACACACACATATTTATATTTATA [CACACA_site7182],7.75 ± 0.42
3,TAGAATAATCTATAAACACACAAACACAACAAAAGA [CACACA_site7861],8.21 ± 0.092
4,AACATTTGATAAGATACACACACAAGGAAAAAAATA [CACACA_site8004],8.01 ± 0.67
5,ACAAATAAAAATATTACACACACTATTCTAGTGATA [CACACA_site6812],7.55 ± 0.49
6,GACAAATTATTGTGTACACAATATTATTATATATAC [CACACA_site6020],8.22 ± 0.41
7,CTTATGTTTTTTAAGTGTACATATTATACGTATTAT [XGTACX_site1176],8 ± 0.13
8,TAAATATATATAATTACACACTTTTCTATAATATGA [CACACA_site711],7.7 ± 0.47
9,TTAAGATATATAAAGAGTACACATAAGAGTAATGCT [XGTACX_site58],7.88 ± 0.45
10,TATAATACATTATATTGTACTATATTATAATAAATT [XGTACX_site5934],7.48 ± 0.33
11,ATATAATTACCATATGGTACACACATATATATATGT [XGTACX_site7393],8.31 ± 0.47
12,ATATTACCCATATATGCACACATTGTAGTTATTTAT [CACACA_site2636],9.58 ± 0.028
13,ATATCGTGTGCATTAACACACATTTATTTGAATAAA [CACACA_site7162],10.9 ± 0.5
14,GATATATAAATAGATACACACATACATACATACATA [CACACA_site6260],8.02 ± 0.7
15,AAAAAAAAAAAAAAAACACACATAAATAGCTCAAAT [CACACA_site3973],8.78 ± 0.49
16,CACATACCCATACAAACACACATTATATATATATAT [CACACA_site4965],9.205 ± 0.035
17,TACGATTAAAAAAAATGTACAGATTTTTATAGAATA [XGTACX_site6561],7.54 ± 0.35
18,TATCATTTTGTATATAGTACATATATAAAATCGTTA [XGTACX_site3875],7.54 ± 0.38
19,AAAAAAAATAAAAATAAAAATAAAAATAAAAATAAA [GTGCAC_negctrl_site437],7.89 ± 0.83
20,AGTCATTAAATATAATGTACATGGAAAAACAGCTGA [XGTACX_site7944],7.92 ± 0.71
21,GGAATATTTATACATACACACATATATTTATTTATA [CACACA_site6883],7.77 ± 0.51
22,CAAGCACCCAGACACACACACACACCCACACCCACA [CACACA_site369],7.83 ± 0.41
23,ATAAAAATAACATATAAACACACATATATATATATA [CACACA_site9267],9.19 ± 0.53

row,Sequence,gcPBM binding intensity (ln)
1,ATGTAGACATAATGGGGTACAAAAAAAAAAAAAAAA [XGTACX_site881],8.37 ± 0.74
2,AACAGATATATATGTAGTACATGTTCTAGATATTTT [XGTACX_site1208],7.62 ± 0.49
3,AATAATTGTTAAAGGTGTACAATACGTATGTAAGAA [XGTACX_site1328],8.7 ± 0.46
4,GTAAGAAACGGACACACACACATATATATATATATA [CACACA_site4593],9.51 ± 0.4
5,AATATATTGCACCATTGGACCTGAATAATTCTTCCA [CACACA_negctrl_site1071],11.8 ± 0.81
6,TAAATAATCATAGTTCTACACACCTATATTGCAAAA [CACACA_site8190],7.76 ± 0.57
7,AAAAAAAAAAATTCCAGTACACACAATAATACTAAA [XGTACX_site5930],7.75 ± 0.54
8,ATATATATAATATGATGTACTATTTTGATAAAAAAT [XGTACX_site3975],8.23 ± 0.54
9,AATAATTAAATATATTTATAACAGGAAAATATTTAT [XGTACX_negctrl_site175],7.75 ± 0.67
10,ATAAATTATATTCAAGTGCATGTAACTTATTATTAT,8.29 ± 0.32
11,ATATATATATAAATATAAATATATATATATATATAT [CACACA_negctrl_site1685],9.21 ± 0.74
12,GTTATAGAAGCATTCACACACACACCGACATACACA [CACACA_site4914],8.2 ± 0.16
13,ACAAAGAACTATAATACACACAAGAATATATTGGAT [CACACA_site7771],7.82 ± 0.81
14,AAAAAAATCACATAATATACTTTATTTTATTTTGTA [GTGCAC_negctrl_site562],7.17 ± 0.59
15,TATATATAGAAACACACACACACATATATATATATT [CACACA_site2539],7.72 ± 0.52
16,TTATAAGATTTATGTACACACATATACACCCCTCTA [CACACA_site4562],8.17 ± 0.28
17,GTTATAGAAGCATTCACACACACACGGACATACACA [CACACA_site6801],8.27 ± 0.2
18,TTTTTTTATAAAAATGAACACACACCGATATATATA [CACACA_site9161],8.34 ± 0.57
19,AATATATACATATGTATGCACTTTTTAATTATTTTT,9.18 ± 0.085
20,TATTATAATATATTTGTGCACATAATACCTCCGCTA [GTGCAC_site9570],10.7 ± 0.18
